From US20100330089A1 (Pfizer, published 2010)
Residue numbers refer to the chain shown, from its start.

Experiments:
[1] = biological target: T1, Human CD20 (human, UniProt P11836 1-297); assay: flow cytometry on primary human B cells, binder at 0.12 ug/ml (second block)
T1 construct: also called Bp35
T1 sequence: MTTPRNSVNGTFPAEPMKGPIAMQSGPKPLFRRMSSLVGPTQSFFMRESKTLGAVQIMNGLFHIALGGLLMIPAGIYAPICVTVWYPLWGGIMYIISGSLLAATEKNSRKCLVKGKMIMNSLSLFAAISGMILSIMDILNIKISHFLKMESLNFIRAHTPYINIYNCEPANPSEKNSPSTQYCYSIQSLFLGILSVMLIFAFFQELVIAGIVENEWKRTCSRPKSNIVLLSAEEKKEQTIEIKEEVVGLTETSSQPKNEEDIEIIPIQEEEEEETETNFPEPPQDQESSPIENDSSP

[2] = biological target: T1, Human CD20; assay: flow cytometry on primary human B cells, binder at 10 ug/ml (first block)
[3] = biological target: T1, Human CD20; assay: flow cytometry on primary human B cells, binder at 10 ug/ml (second block)
[4] = biological target: T2, Human CD20 (UniProt P11836 1-297); assay: flow cytometry
T2 chain: T1 sequence

[5] = biological target: T1, Human CD20; assay: flow cytometry on primary human B cells, binder at 0.12 ug/ml (first block)
[6] = biological target: T1, Human CD20; assay: flow cytometry on primary human B cells, binder at 1.1 ug/ml (first block)
[7] = biological target: T1, Human CD20; assay: cell-based or functional assay
[8] = biological target: T1, Human CD20; assay: flow cytometry on primary human B cells, binder at 0.37 ug/ml (first block)
[9] = biological target: T1, Human CD20; assay: flow cytometry on primary human B cells, binder at 1.1 ug/ml (second block)
[10] = biological target: T1, Human CD20; assay: flow cytometry on primary human B cells, binder at 0.04 ug/ml (second block)

B1: 18008 sccp (Fc fusion)
chain: EIVLTQSPATLSLSPGERATLSCRASQSVSYMHWYQQKPGQAPRLLIYAPSNLASGIPARFSGSGSGTDFTLTISSLEPEDFAVYYCQQWSFNPPTFGQGTKVEIKDGGGSGGGGSGGGGTGEVQLVQSGAEVKKPGESLKISCKGSGYSFTSYNMHWVRQMPGKGLEWMGAIYPGNGDTSYNQKFKGQVTISADKSISTAYLQWSSLKASDTAMYYCARVVYYSNSYWYFDLWGRGTLVTVSSDQ[skipping human IgG1 Fc with changes]
notes: Humanized SMIP; Hinge and Fc are assigned from the name's suffix
- MFI [1]: 12.9 MFI
- MFI [2]: 79.5 MFI
- MFI [3]: 64.7 MFI
- EC50 [4]: 1.75 µg/mL
- MFI [5]: 13 MFI
- MFI [6]: 44.8 MFI
- % lysis (CDC on Ramos cells), 0.12 ug/ml [7]: 32.2 % lysis
- % lysis (CDC on Ramos cells), 0.37 ug/ml [7]: 47.9 % lysis
- % lysis (CDC on Ramos cells), 1.1 ug/ml [7]: 57.1 % lysis
- % lysis (CDC on Ramos cells), 10 ug/ml [7]: 72.5 % lysis
- % lysis (CDC on Ramos cells), 1 nm [7]: 50 % lysis
- % lysis (CDC on Ramos cells), 4 nm [7]: 61.4 % lysis
- % lysis (CDC on Ramos cells), 11 nm [7]: 66.7 % lysis
- % lysis (CDC on Ramos cells), 100 nm [7]: 73.9 % lysis
- MFI [8]: 24.8 MFI
- MFI [9]: 20.7 MFI
- MFI [10]: 6.1 MFI

B2: 018008 csc (Fc fusion)
chain: EIVLTQSPATLSLSPGERATLSCRASQSVSYMHWYQQKPGQAPRLLIYAPSNLASGIPARFSGSGSGTDFTLTISSLEPEDFAVYYCQQWSFNPPTFGQGTKVEIKDGGGSGGGGSGGGGTGEVQLVQSGAEVKKPGESLKISCKGSGYSFTSYNMHWVRQMPGKGLEWMGAIYPGNGDTSYNQKFKGQVTISADKSISTAYLQWSSLKASDTAMYYCARVVYYSNSYWYFDLWGRGTLVTVSSDQ[skipping human IgG1 Fc with C226S P230S (EU numbers)]
notes: as for B1
- EC50 [4]: 1.55 µg/mL

B3: 2LM 16 csc (Fc fusion)
chain: EIVLTQSPATLSLSPGERATLSCRASSSVSYMHWYQQKPGQAPRLLIYAPSNLASGIPARFSGSGSGTDFTLTISSLEPEDFAVYYCQQWSFNPPTFGQGTKVEIKDGGGSGGGGSGGGGSSQVQLVQSGAEVKKPGASVKVSCKASGYTFTSYNMHWVRQAPGQGLEWMGAIYPGNGDTSYNQKFKGRVTMTRDTSTSTVYMELSSLRSEDTAVYYCARSYYSNSYWYFDLWGRGTLVTVSSDQ[skipping human IgG1 Fc with C226S P230S (EU numbers)]
- EC50 [4]: 0.354 µg/mL

B4: 2LM 19-3 csc (Fc fusion)
chain: B3 chain with S27Q, M32I, H33V
notes: Humanized SMIP; Hinge and Fc are assigned from the name's suffix; also called 2LM 19-3 CSCS
- EC50 [4]: 0.301 µg/mL

B5: 2LM 20-4 csc (Fc fusion)
chain: B3 chain with M32I, H33V
notes: Humanized SMIP; also called 2 LM 20-4 CSCS
- EC50 [4]: 0.322 µg/mL
